Source: PubChem BioAssay AID485313 (National Center for Advancing Translational Sciences (NCATS), 2010)
Out of some 320,000 compounds screened, about 7,600 (2.4%) were called active. The inconclusive results got no clear call from the source; some entries with a clear call stand among them for comparison. Calls follow the shape of the dose curve; as a rule, active = well fitted activation curve with a large enough effect; inconclusive = small, poorly fitted or top-dose-only effect; inactive = no such curve, though single readings can be large or run the other way. Potencies of inconclusive entries are left out as doubtful fits.

Test: qHTS Assay for NPC1 Promoter Activators; also: nearly all actives have a fitted effect of over 60% in size;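 as to activation: reporter is driven by a mutant NPC1 promoter; % of control where 0% means no effect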
Settings: Huh7 NPC1 promoter luciferase reporter, 24 h; series mostly up to 9.22 µM; activation: at the top concentration
Outline: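 NPC1 promoter–luciferase Huh7 cells; 24 h compound; luminescence.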
Potency is read from the fitted curve at half-maximal effect; tags tell the direction and shape of the fitted curve.

Structure (SMILES) | Potency | activation
FC(F)Sc1ccc(Nc2ncnc3nc[nH]c23)cc1 | inconclusive [activator, partial curve] | –
O=C(O)c1ccc(-n2ncc3c2/C(=C/c2cccc([N+](=O)[O-])c2)CC3)cc1 | active: 1.58 µM | –
O=C(CSc1nnc(NC(=O)c2ccccc2F)s1)NC1CC1 | inconclusive [activator, partial curve] | –
COc1ccc(C)cc1NC(=O)c1cc(S(=O)(=O)N2CCOCC2)cn1C | – | inactive: -1.11%
COc1ccc(CNc2ccc(-c3ccccc3OC)nn2)cc1 | – | inactive: 11.2%
COc1ccc(/C=N/Nc2ncccc2[N+](=O)[O-])c(OC)c1 | inconclusive [activator, single point] | –
O=C(NCc1ccccc1)c1cccc(COc2cccc(Cl)c2)c1 | inconclusive [activator, single point] | –
CNc1nc(-c2ccc([N+](=O)[O-])cc2)cs1 | inconclusive [activator, partial curve] | –
O=C(Nc1cccc(-c2nc3ncccc3o2)c1)c1sc2ccccc2c1Cl | inconclusive [activator, full curve] | –
O=C(O)CCCC(=O)OCCCCc1cccs1 | inconclusive [activator, partial curve, poor fit] | –
CN(C)S(=O)(=O)c1ccc(C(=O)Nc2ccccn2)cc1 | inconclusive [activator, single point] | –
CCOC(=O)c1sc(NC(=O)c2ccc(C)s2)cc1C | inconclusive [activator, partial curve] | –
Cc1cccc(-n2ncc3c(N)ncnc32)c1 | inconclusive [activator, single point] | –
O=C(COC(=O)Cc1n[nH]c(=O)c2ccccc12)Nc1ccc(Cl)cn1 | – | inactive: -5.72%
COc1ccc(CNC(=O)Cc2cccs2)cc1 | inconclusive [activator, partial curve] | –
O=C(Nc1cccnc1)c1ccc(CSc2ccccc2)cc1 | – | inactive: 1.94%
C/C(=N\O)C(=O)NCCN1CCCCC1 | inconclusive [activator, single point] | –
CC(C)CNC(=O)c1ccccc1NC(=O)c1ccc(CSc2ccccc2)cc1 | – | inactive: -4.47%
COc1ccc(C(=O)NCCc2ccccc2)cc1[N+](=O)[O-] | inconclusive [activator, single point] | –
O=C(Nc1ccccc1O)c1ccc([N+](=O)[O-])cc1 | inconclusive [activator, single point] | –
Cc1ccc(NC(=O)C2=NNC(=O)CC2)cc1F | inconclusive [activator, single point] | –

Structure (SMILES) | Potency | activation
Cc1cccc(NC(=O)COc2ccccc2C)n1 | inconclusive [activator, single point] | –
CC(C)(C)c1nc(Sc2ccc([N+](=O)[O-])cn2)n[nH]1 | inconclusive [activator, single point] | –
CCN1CCN(c2ccc(NC(=O)c3ccc4c(c3)OCO4)cc2)CC1 | inconclusive [activator, partial curve] | –
CC(C)(C)c1ccc(C(=O)NCCc2ccccc2)cc1 | active: 0.355 µM | –
CC(=O)N1CCN(C(=O)c2cc3ccccc3o2)CC1 | – | inactive: -2.5%
COc1ccc(F)cc1C(=O)C1CCCN(Cc2c(C)n(C)n(-c3ccccc3)c2=O)C1 (stereo unspecified) | – | inactive: -2.84%
C(=N\c1nc2ccccc2n1CCN1CCCCC1)/c1cccs1 | – | inactive: -2.9%
C=CCNC(=O)C1CC2Cn3c(nc4cc5ccccc5cc43)C2N1C (stereo unspecified) | inconclusive [activator, single point] | –
CCc1ccc(/C=C/C(=O)C2C(=O)c3ccccc3C2=O)cc1 | inconclusive [activator, partial curve] | –
Cc1ccc(NC(=O)Nc2cccnc2)cc1 | inconclusive [activator, partial curve] | –
Cc1nn2cc(-c3ccc(Cl)cc3)nc2s1 | active: 0.316 µM | –
O=C(NCc1nc2ccccc2[nH]1)c1ccco1 | – | inactive: 2.19%
CC(C)c1ccc(NC(=O)COC(=O)C2CCCCC2)cc1 | – | inactive: 10.7%
c1ccc2c(Nc3nc4c(s3)CCCC4)cccc2c1 | inconclusive [activator, single point] | –
CC(=O)Nc1ccc(NC(=O)C(C)OC(=O)/C=C/c2cn(-c3ccccc3)nc2-c2cccnc2)cc1 (stereo unspecified) | – | inactive: -3.86%
O=S(=O)(Nc1cccc(-c2ccc(N3CCCCCC3)nn2)c1)c1ccc(F)cc1 | inconclusive [activator, single point] | –
O=C(Nc1nc2ccsc2c(=O)s1)C1CCC1 | inconclusive [activator, single point] | –
C/C(=N\Nc1ccc(C(=O)O)cc1)c1nc2ccccc2n1C | active: 0.562 µM | –
COc1ccccc1C(=O)Nc1ccc(NC(=O)c2ccco2)cn1 | inconclusive [activator, partial curve] | –
COc1ccc(C/C(C)=N/NC(=S)Nc2ccccc2F)cc1 | active: 3.16 µM | –
CC(=O)c1c(C)[nH]c(C(=O)Nc2cccc(C)n2)c1C | active: 0.355 µM | –

Structure (SMILES) | Potency | activation
CC(C)C[C@H](NC(=O)c1nc[nH]c1C(=O)NCc1ccc(CNC(=O)OC(C)(C)C)cc1)C(=O)OC(C)(C)C | – | inactive: -3.39%
CN(CCn1ccnc1)Cc1cn(Cc2ccccc2)nc1-c1ccc2c(c1)OCO2 | – | inactive: -2.15%
O=C(NCC1CCCO1)c1cc(-c2ccccc2F)no1 (stereo unspecified) | inconclusive [activator, single point] | –
O=C(c1ccc2c3n(nc2c1)-c1ccccc1CO3)N1CCCCC1 | active: 0.794 µM | –
CC(C)/C=C/C(=O)N1CCCC(N2CCN(c3ccccc3F)CC2)C1 (stereo unspecified) | – | inactive: 2.83%
CCOc1ccc(CCNC(=O)c2sc3nc4n(c(=O)c3c2C)CCC4)cc1OCC | – | inactive: -2.88%
CC(C)(C)c1ccc(C(=O)NCCOc2ccccc2)cc1 | active: 0.316 µM | –
CSc1nc2ccc(NC(=O)c3cc4ccccc4o3)cc2s1 | active: 1.58 µM | –
O=C(NCc1ccccn1)c1cc(-c2ccccc2Cl)on1 | inconclusive [activator, single point] | –
CC(=O)Cn1nnc2sc3c(c2c1=O)CCC(C(C)(C)C)C3 (stereo unspecified) | active: 3.55 µM | –
Cc1nc2ccc(C(=O)N/N=C/c3ccccc3O)cc2[nH]1 | inconclusive [activator, single point] | –
Cc1ccc(NC(=O)c2cnccn2)cc1 | active: 2.51 µM | –
O=C(Cc1ccccc1)NC(=S)Nc1ccc2oc(-c3ccccc3)nc2c1 | inconclusive [activator, partial curve] | –
c1coc(-c2nnc(-c3ccc4c(c3)OCO4)o2)c1 | active: 2 µM | –
Cc1cc(N2CCN(C(=O)c3ccco3)CC2)n2nc(C)c(-c3ccc(Cl)cc3)c2n1 | – | inactive: -1.02%
CN(C)c1ccc(/C=N/NC(N)=S)cc1[N+](=O)[O-] | – | inactive: -1.41%
Cc1ccc(NC(=O)CN(C)S(=O)(=O)c2ccc(Cl)s2)c(O)c1 | inconclusive [activator, partial curve] | –
O=C(NC(=S)Nc1cccc(O)c1)c1ccco1 | inconclusive [activator, single point] | –
COc1ccc(C(=O)NCCc2ccccc2)cc1OC | inconclusive [activator, full curve, poor fit] | –
NNc1nc2c(Cl)c(Cl)ccc2s1 | inconclusive [activator, single point] | –
CCc1ccccc1NC(=O)[C@@H]1CCC(=O)N1C1OC(=O)c2c1ccc(OC)c2OC (stereo partly specified) | – | inactive: -0.58%

Structure (SMILES) | Potency | activation
O=C(Nc1nccs1)c1ccc(-c2ccc(Cl)cc2)o1 | active: 1.41 µM | –
O=[N+]([O-])c1cccc(-c2nc(-c3ccccc3)no2)c1 | active: 6.31 µM | –
O=C(Nc1ccc2[nH]ncc2c1)c1ccccc1 | active: 2.82 µM | –
COCCNC(=O)[C@H]1N2C(=O)c3ccccc3C2SC1(C)C (stereo partly specified) | – | inactive: -0.275%
N#Cc1c(Cl)nc(SCc2ccccc2)nc1-c1ccccc1 | – | inactive: -2.12%
Cc1csc2nc(CNC(=O)c3ccco3)cn12 | inconclusive [activator, partial curve] | –
O=C(CC1CCCCC1)Nc1nc2ccccc2s1 | active: 1.78 µM | –
Cc1cc(C)c(C#N)c(SCC(=O)Nc2ccc3c(c2)OCO3)n1 | inconclusive [activator, single point] | –
O=[N+]([O-])c1ccc2nc(-c3ccc(Cl)cc3)n(OCc3ccccc3)c2c1 | inconclusive [activator, partial curve] | –
COc1ccc(C(=O)Nc2cccc(-c3cc4ccccc4oc3=O)c2)cc1[N+](=O)[O-] | – | inactive: -7.01%
O=C(O)CCC(=O)Nc1cccc(-c2nc3ccccc3o2)c1 | – | inactive: 0.897%
COc1ccc(-c2csc(NC3=NCCCCC3)n2)cc1 | inconclusive [activator, single point] | –
CCOC(=O)C1(Cc2ccccc2Cl)CCN(C(=O)c2cnccn2)CC1 | inconclusive [activator, partial curve] | –
COC(=O)c1c(-c2cccnc2)csc1NC(=O)c1ccc2c(c1)OCO2 | active: 2.51 µM | –
Clc1nc(-c2cccnc2)nc2scc(-c3ccccc3)c12 | inconclusive [activator, single point] | –
O=C(c1ccc(OCC2CCCO2)cc1)N1CCN(c2ccccc2)CC1 (stereo unspecified) | – | inactive: -1.24%
CCC(=O)c1ccc(OC(=O)C2CCN(C3=NS(=O)(=O)c4ccccc43)CC2)cc1 | – | inactive: -1.93%
Cc1csc(NC(=O)c2cccn2C)n1 | active: 3.55 µM | –
